Reference: PubChem BioAssay AID504332 (National Center for Advancing Translational Sciences (NCATS), 2011)
“And” between values parts separate entries of the source, which are not always exact repeats. Identical values can stand only once. Among all 350,000 compounds or so, about 31,000 (8.9%) were called active. Inconclusive results, whose numbers are uncertain, are shown with a selection of clear calls. Calls follow the shape of the dose curve; as a rule, active = well fitted inhibition curve with a large enough effect; inconclusive = small, poorly fitted or top-dose-only effect; inactive = no such curve, though single readings can be large or run the other way. A potency beside an inconclusive call is a rough fit, not a confirmed value.

target: Histone-lysine N-methyltransferase EHMT2 (Homo sapiens) (UniProt Q96KQ7); test: qHTS Assay for Inhibitors of Histone Lysine Methyltransferase G9a; settings: G9a H3K9 monomethylation, AlphaScreen, 2 h; activity, negative = inhibition: at 59 µM (top of the series) unless noted; also: nearly all actives have a fitted effect of over 75% in size
Outline: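 Compounds were preincubated with 20 nM G9a for 15 min, after which biotinylated H3K9 peptide (500 nM) and SAM (20 uM) started a 2 h room-temperature reaction. Monomethylated product was quantified by antibody-based AlphaScreen chemiluminescence.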
% is scaled to controls: 0 for no effect and ±100 for the full control effect; potency is read from the fitted curve at half-maximal effect; tags tell the direction and shape of the fitted curve.

UniProt Q96KQ7, sequence (Q96KQ7 whole entry, looked up): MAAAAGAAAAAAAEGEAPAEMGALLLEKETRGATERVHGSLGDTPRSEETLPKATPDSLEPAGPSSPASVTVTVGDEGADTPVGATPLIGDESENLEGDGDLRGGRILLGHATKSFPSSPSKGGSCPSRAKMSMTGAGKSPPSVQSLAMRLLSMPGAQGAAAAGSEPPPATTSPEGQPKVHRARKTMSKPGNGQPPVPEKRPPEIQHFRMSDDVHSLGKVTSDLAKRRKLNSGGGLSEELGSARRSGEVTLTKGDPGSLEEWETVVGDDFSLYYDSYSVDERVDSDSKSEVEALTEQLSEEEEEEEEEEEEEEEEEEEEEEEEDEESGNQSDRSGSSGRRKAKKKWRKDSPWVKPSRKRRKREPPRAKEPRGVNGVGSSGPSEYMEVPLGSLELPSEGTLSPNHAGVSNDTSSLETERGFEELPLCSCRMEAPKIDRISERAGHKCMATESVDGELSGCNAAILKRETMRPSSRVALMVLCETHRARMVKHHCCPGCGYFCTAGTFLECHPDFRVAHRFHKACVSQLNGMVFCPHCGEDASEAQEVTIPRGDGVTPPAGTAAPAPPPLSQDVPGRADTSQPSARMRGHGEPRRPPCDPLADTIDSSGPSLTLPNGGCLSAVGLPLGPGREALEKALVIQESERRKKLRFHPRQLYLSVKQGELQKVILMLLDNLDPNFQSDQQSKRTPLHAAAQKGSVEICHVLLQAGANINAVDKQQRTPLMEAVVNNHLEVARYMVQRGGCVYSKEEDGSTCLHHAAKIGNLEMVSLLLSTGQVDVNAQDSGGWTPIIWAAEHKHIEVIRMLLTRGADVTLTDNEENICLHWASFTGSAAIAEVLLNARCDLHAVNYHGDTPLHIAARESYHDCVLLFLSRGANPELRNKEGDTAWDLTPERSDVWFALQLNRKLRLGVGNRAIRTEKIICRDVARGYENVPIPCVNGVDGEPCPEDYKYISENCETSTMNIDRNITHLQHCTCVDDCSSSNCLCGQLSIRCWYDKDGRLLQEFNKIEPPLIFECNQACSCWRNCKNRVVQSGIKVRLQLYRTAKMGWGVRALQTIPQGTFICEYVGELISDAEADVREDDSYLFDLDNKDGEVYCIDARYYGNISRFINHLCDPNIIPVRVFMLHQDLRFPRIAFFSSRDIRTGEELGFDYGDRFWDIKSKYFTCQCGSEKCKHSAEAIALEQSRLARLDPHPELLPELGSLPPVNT

Row | Structure (SMILES) | Potency | activity, negative = inhibition
1 | COc1cccc(CN2CCN(Cc3cc(OC)c(OC)cc3[N+](=O)[O-])CC2)c1 | active: 7.94 µM | 
2 | Cc1cccc(NC(=O)c2cc3c(=O)n(Cc4cccnc4)ccc3nc2C)c1 | inactive | 
3 | CC1CCCN(C(=O)C2CCN(S(=O)(=O)c3ccc4c(c3)CC(C)N4C(=O)C3CC3)CC2)C1 (configuration not stated) | inactive | 
4 | O=[N+]([O-])c1ccc(/C([O-])=C(/C(=S)Nc2ccccc2F)[n+]2ccccc2)cc1 | active: 50.1 µM | 
5 | CCN(CCCNC(=O)Cn1ncc2c([nH]c3ccc(C)cc32)c1=O)c1ccccc1 | inactive | 
6 | FC(F)(F)c1ccccc1CNCc1ccc2c(c1)OCO2 | inactive | 
7 | N#Cc1cc2c(=O)n3ccccc3nc2n(-c2nnc(SCc3ccccc3Cl)s2)c1=O | inactive | 
8 | Cc1ccccc1NC(=O)C1Cc2ccccc2CN1C(=O)c1ccco1 (configuration not stated) | inconclusive: 56.2 µM [inhibitor, partial curve, poor fit] | 
9 | COc1ccnc(CS(=O)c2nc3ccc(OC(F)F)cc3[nH]2)c1OC (configuration not stated) |  | inconclusive: -71.5% [inhibitor] [at 2.33 µM]
10 | Cc1ccccc1OCC(=O)Nc1ccccc1OCc1cc(=O)n2ccccc2n1 | inactive | 
11 | CC(=O)N1N=C(c2ccco2)CC1c1cccs1 (configuration not stated) | inconclusive: 17.8 µM [inhibitor, partial curve, poor fit] | 
12 | COc1ccc(C(CNC(=O)c2cccc3cccnc23)N(C)C)cc1 (configuration not stated) | inconclusive: 89.1 µM [inhibitor, single point] | 
13 | Cc1cc(C)cc(NC(=O)C2C3C=CC4(O3)C2C(=O)N(CCCN(C)C)C4C(=O)NC2CCCC(C)C2C)c1 (configuration not stated) | inconclusive: 89.1 µM [inhibitor, single point] | 
14 | CCn1nc(C)c(NC(=O)/C=C/c2ccc(OC)c(COc3ccc(Br)cc3)c2)c1C | inconclusive: 2.82 µM [inhibitor, full curve, poor fit] | 
15 | O=C1C(Cl)=C(Nc2ccc(O)cc2)C(=O)c2ccccc21 | active: 11.2 µM | 
16 | COc1cc(C)ccc1OCCCCN1CC(C)OC(C)C1 (configuration not stated) | active: 8.91 µM | 
17 | CCOC(=O)c1c(NS(=O)(=O)c2cccc(OC)c2)sc2c1CCC2 |  | inconclusive: -119% [inhibitor] [at 12.7 µM]
18 | CCOC(=O)c1ccc(N2Cc3ccccc3C2=NC(=O)c2ccncc2)cc1 | inconclusive: 31.6 µM [inhibitor, partial curve, poor fit] | 
19 | CCSc1oc(-c2ccco2)nc1S(=O)(=O)c1ccc(C)cc1 | active: 25.1 µM | 
20 | O=c1[nH]c(CSc2nnc(-c3cccnc3)n2C2CCCCC2)nc2ccccc12 | inconclusive: 7.94 µM [inhibitor, single point] | 
21 | CCOC(=O)Cn1c(=O)n(CC2CCCO2)c2nc(-c3cc(OC)ccc3OC)nc(C(N)=O)c21 (configuration not stated) | inactive | 
22 | CCN1C(=O)/C(=C2\SC(=S)N(c3c(C)n(C)n(-c4ccccc4)c3=O)C2=O)c2ccccc21 | inconclusive: 22.4 µM [inhibitor, single point] | 
23 | Cc1ccccc1-c1nnc(SCCOc2ccc3c(C)cc(=O)oc3c2)o1 | inconclusive: 70.8 µM [inhibitor, partial curve, poor fit] | 
24 | CN(C)CCOC(=O)c1sc2ccccc2c1Cl | inconclusive: 39.8 µM [inhibitor, partial curve, poor fit] | 

Row | Structure (SMILES) | Potency | activity, negative = inhibition
25 | CCCN1C(=O)S/C(=C\c2ccc(N3CCOCC3)o2)C1=O | active: 3.98 µM | 
26 | CC(=O)c1ccc(S(=O)(=O)N(C)C(C)CCc2ccco2)cc1 (configuration not stated) | inconclusive: 79.4 µM [inhibitor, single point] | 
27 | Cc1ccc(/C=N/n2c(C)nnc2C)s1 | inconclusive: 89.1 µM [inhibitor, single point] | 
28 | CCOC(=O)c1sc(NC(=O)/C=C/c2cnn(C)c2C)c(C(=O)OCC)c1C | inconclusive: 6.31 µM [inhibitor, single point] | 
29 | C=CCn1c(-c2ccc(F)cc2)n[nH]c1=S | active: 20 µM | 
30 | O=[N+]([O-])c1ccccc1CNCCO |  | inconclusive: -113% [inhibitor] [at 2.33 µM]
31 | CCN(CC)c1nn2c(=O)c(C(=O)NCCc3cccc(C)c3)cnc2s1 | inactive | 
32 | CCOc1cc(N2CCOCC2)c(OCC)cc1NC(=O)CN1CCc2ccccc2C1 |  | inactive: 15.3% [at 2.33 µM]
33 | CC(C)c1ccc2oc(-c3cc(N)ccc3O)nc2c1 | inconclusive: 89.1 µM [inhibitor, single point] | 
34 | Cc1ccc2nc(-c3ccccn3)c(Nc3ccccc3C)n2c1 | inconclusive: 39.8 µM [inhibitor, single point] | 
35 | Cc1nnc2sc(COc3ccccc3)nn2c1=O | inactive | 
36 | COc1ccccc1OCC(=O)NNC(=O)CCCC(=O)NNC(=O)COc1ccccc1OC | inconclusive: 89.1 µM [inhibitor, single point] | 
37 | Cc1ccccc1NC(NC(=O)c1cccnc1)C(Cl)(Cl)Cl (configuration not stated) | inactive | 
38 | CC(=O)NCCNc1ncnc2ccc(-c3ccc4c(c3)OCO4)cc12 |  | inactive: -29% [at 0.501 µM]
39 | O=S(=O)(Nc1ncnc2sc3c(c12)CCC3)c1ccc(Cl)s1 | active: 10 µM | 
40 | COCCN(CC(=O)Nc1cccc(C)c1C)C(=O)c1ccc2c(c1)OCO2 | inconclusive: 89.1 µM [inhibitor, partial curve, poor fit] | 
41 | COc1ccc(C(=O)Nc2c(N)nc(SCC(=O)N3CCC(C)CC3)[nH]c2=O)cc1OC | inconclusive: 89.1 µM [inhibitor, single point] | 
42 | Cc1c(NC(=O)/C(C#N)=C/c2ccc(-c3cccc(Cl)c3)o2)c(=O)n(-c2ccccc2)n1C | inconclusive: 20 µM [inhibitor, single point] | 
43 | O=C(NCCCCc1ccccc1)C12CN(Cc3ccccc3)CC1C(c1cccc([N+](=O)[O-])c1)=NO2 (configuration not stated) |  | inconclusive: -69.5% [inhibitor]
44 | CCC(CO)NCC(O)COCc1ccc2c(c1)OCO2 (configuration not stated) | inconclusive: 89.1 µM [inhibitor, partial curve, poor fit] | 
45 | O=[N+]([O-])c1cc2c(cc1C=Nc1ccccc1)OCO2 | inconclusive: 70.8 µM [inhibitor, single point] | 
46 | COc1ccc2c(C)cc3nncn3c2c1 | inconclusive: 56.2 µM [inhibitor, partial curve] | 
47 | c1cncc(-c2nnc3sc(-c4ccco4)nn23)c1 | inconclusive: 89.1 µM [inhibitor, single point] | 
48 | CS(=O)(=O)c1ccc(C(=O)NCC2(N3CCCCC3)CCCCC2)cc1 | inconclusive: 89.1 µM [inhibitor, single point] | 

Row | Structure (SMILES) | Potency | activity, negative = inhibition
49 | O=C(Cc1ccccc1)Nc1ccccc1C(=O)N1CCN(c2ccccc2)CC1 | inconclusive: 79.4 µM [inhibitor, single point] | 
50 | FC(F)(F)c1cccc(NC(=S)NNC(=S)Nc2ccc(Cl)cc2)c1 | active: 20 µM | 
51 | CCC(=O)Nc1nnc(S(=O)(=O)N2c3ccccc3CC2C)s1 (configuration not stated) | inconclusive: 35.5 µM [inhibitor, single point] | 
52 | CC(C)Sc1nc2ccccc2[nH]1 | active: 56.2 µM | 
53 | CCOc1ccc(Cn2c(C)nc([N+](=O)[O-])c2SCC(O)CCl)cc1[N+](=O)[O-] (configuration not stated) | inconclusive: 79.4 µM [inhibitor, partial curve, poor fit] | 
54 | CC(N1CCOC1=O)S(=O)(=O)c1ccccc1 (configuration not stated) | inconclusive: 7.08 µM [inhibitor, single point] | 
55 | CCC1(c2ccccc2)NC(=O)N(CC(=O)NNC(=O)COc2ccc(Cl)cc2C)C1=O (configuration not stated) | inactive | 
56 | CC(=O)c1ccc(NC(=O)CSc2nnc(Cc3cccn3C)n2-c2ccc(F)cc2)cc1 | active: 50.1 µM | 
57 | C[C@H](NC(=O)[C@H]1N2C(=O)c3ccccc3C2SC1(C)C)C(=O)N1CCN(C)CC1 (some centres not stated) | inactive | 
58 | CC1(C)Cc2c(c(N3CCOCC3)nc3sc(-c4ccc(C(=O)O)o4)c(N)c23)CO1 | inconclusive: 39.8 µM [inhibitor, single point] | 
59 | [Cl][In]([Cl])[Cl] | inactive | 
60 | Cc1nn(-c2ccccc2)c(Cl)c1/C=N\NC(=O)c1cnccn1 | inactive | 
61 | Cc1nn2c(NCCCN(C)C)c3c(nc2c1-c1ccccc1)CCC3 | inconclusive: 79.4 µM [inhibitor, single point] | 
62 | O=C(Nc1nc2ccccc2[nH]1)c1ccccc1O | inconclusive: 89.1 µM [inhibitor, single point] | 
63 | CCCC1=Nc2cc(C(=O)N3CCC(C(=O)OCC)CC3)ccc2Sc2ccccc21 | inactive and inconclusive: 28.2 µM [inhibitor, single point] | 
64 | CCN=c1scc(-c2ccco2)n1/N=C/c1ccc(O)cc1 | active: 35.5 µM | 
65 | COc1ccc(-c2cc(C(=O)N3CCCCCC3)c3ccccc3n2)cc1 | inconclusive: 3.16 µM [inhibitor, full curve, poor fit] | 
66 | CCOC(=O)c1cnc2ccc(OCC)cc2c1NCc1ccccc1 | inactive | 
67 | CC(CCC(=O)O)C1CCC2C3CC[C@H]4CC(O)CC[C@@]4(C)C3C=C[C@]12C (some centres not stated) |  | inactive: -22.7% [at 2.33 µM]
68 | COCCSc1ccccc1C(=O)Nc1nccs1 | inconclusive: 2.51 µM [inhibitor, partial curve, poor fit] | 
69 | N#C/C(=C(/O)c1ccc(Cl)cc1)c1nc2ccccc2[nH]1 | inactive | 
70 | CCn1cc(C(=O)NCCO)c(=O)c2cc(F)c(N3CCN(C)CC3)cc21 | inconclusive: 56.2 µM [inhibitor, partial curve, poor fit] | 
71 | COc1cc(NC(=S)NCCCO)c(OC)cc1Cl | active: 28.2 µM | 
72 | CCN1C(=NCC2CC2)N[C@@H](c2ccccc2)C(C(=O)OC)=C1C |  | inactive: -12.7% [at 12.7 µM]
